Numbering of substitutions follows the chain as printed. These are yes or no findings as the source states them, for the method shown. Some entries that bind do so weakly or less than the wild type. For some assays here: Where a sequence is shown, tags or fusion partners need not be part of it.

Sequences of proteins named here, by UniProt entry; tags and fusion partners are left off.
UniProt Q8TCG2: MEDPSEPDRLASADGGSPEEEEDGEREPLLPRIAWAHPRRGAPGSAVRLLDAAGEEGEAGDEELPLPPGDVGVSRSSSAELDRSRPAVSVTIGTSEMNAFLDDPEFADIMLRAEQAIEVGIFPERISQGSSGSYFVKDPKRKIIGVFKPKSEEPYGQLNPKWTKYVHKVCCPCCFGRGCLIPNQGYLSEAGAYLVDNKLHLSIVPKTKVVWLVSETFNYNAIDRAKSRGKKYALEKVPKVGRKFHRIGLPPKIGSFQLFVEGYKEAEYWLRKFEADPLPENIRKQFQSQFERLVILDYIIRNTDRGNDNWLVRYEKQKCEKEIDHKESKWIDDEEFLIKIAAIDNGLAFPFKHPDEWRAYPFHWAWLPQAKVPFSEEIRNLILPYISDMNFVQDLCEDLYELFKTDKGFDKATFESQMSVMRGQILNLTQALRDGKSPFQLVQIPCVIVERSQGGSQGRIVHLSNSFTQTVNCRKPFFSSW
UniProt O95166: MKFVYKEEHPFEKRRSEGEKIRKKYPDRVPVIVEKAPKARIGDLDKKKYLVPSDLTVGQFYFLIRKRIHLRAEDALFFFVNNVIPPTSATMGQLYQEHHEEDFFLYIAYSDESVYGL

Common to all, as to experiment: dual-color heterospecies partition (HSP) analysis, fluorescence fluctuation spectroscopy; live transfected cells co-expressing an EGFP-tagged PI 4-kinase and mCherry-tagged GABARAP; two-photon excitation at 1000 nm, 60 s; 24 h after transfection; L-15 medium with 10% fetal bovine serum; co-mobility on cytoplasmic vesicles
Experiment [1] addresses T1, EGFP-PI4K2A (91-478) with residues 333MVRE336 mutated to alanine (rat) (UniProt Q99M64).
T1 sequence: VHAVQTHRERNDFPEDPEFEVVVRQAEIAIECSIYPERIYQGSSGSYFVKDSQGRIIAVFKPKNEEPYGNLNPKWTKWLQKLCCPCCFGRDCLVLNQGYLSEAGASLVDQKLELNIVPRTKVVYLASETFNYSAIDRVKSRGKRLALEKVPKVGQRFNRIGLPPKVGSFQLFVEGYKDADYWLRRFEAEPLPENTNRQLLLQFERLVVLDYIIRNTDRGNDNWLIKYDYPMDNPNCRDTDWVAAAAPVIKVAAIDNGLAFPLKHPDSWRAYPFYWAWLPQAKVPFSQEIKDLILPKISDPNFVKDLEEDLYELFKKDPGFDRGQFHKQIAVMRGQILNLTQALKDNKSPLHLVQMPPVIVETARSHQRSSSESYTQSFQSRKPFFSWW

The target of experiment [2] is T2, EGFP-PI4K2A-(91-478)^7A (rat) (UniProt Q99M64).
T2 sequence: T1 sequence with D240A, W241A, V242A

The target in experiment [3] is T3, EGFP-PI4K2A-(91-478)^WT (rat) (UniProt Q99M64).
T3 sequence: T1 sequence with A243M, A244V, A245R, A246E

Experiment [4] has as its target T4, EGFP-PI4K2A^7A (rat) (UniProt Q99M64).
T4 sequence: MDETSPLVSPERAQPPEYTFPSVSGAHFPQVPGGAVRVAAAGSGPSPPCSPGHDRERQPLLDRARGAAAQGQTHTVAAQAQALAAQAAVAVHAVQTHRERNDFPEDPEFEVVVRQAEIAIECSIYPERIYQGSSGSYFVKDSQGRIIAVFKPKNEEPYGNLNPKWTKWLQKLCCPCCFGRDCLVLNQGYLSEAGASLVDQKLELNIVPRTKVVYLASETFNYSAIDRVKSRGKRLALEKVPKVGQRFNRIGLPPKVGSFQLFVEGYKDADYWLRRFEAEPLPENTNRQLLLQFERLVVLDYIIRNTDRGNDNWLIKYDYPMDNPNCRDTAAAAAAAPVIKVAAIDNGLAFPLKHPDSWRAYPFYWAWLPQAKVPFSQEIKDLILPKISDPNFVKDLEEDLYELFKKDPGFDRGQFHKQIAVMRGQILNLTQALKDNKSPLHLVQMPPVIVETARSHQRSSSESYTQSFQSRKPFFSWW

In experiment [5] the target is EGFP-PI4K2B (human) (UniProt Q8TCG2).

Consider “mCherry-GABARAP (wild type) (from UniProt O95166 1-117)”, for which the binding result in experiment [1] is on record as “binds”; in experiment [2], “no binding”; in experiment [3] it was “binds”; in experiment [4], “no binding”; in experiment [5] it was “no binding”.

Values taken from article PMC11499380.
